The whole screen tested about 46,000 compounds, of which about 60 (0.1%) were called active. Roughly 3% stayed inconclusive and do not appear here. Calls follow the shape of the dose curve; as a rule, active = well fitted inhibition curve with a large enough effect; inconclusive = small, poorly fitted or top-dose-only effect; inactive = no such curve, though single readings can be large or run the other way. Some of the results follow.
test: Primary qHTS assay for Inhibitors of ovarian cancer metastasis using an organotypic tumor microenvironment (TME) model.; also: nearly all actives have a fitted effect of over 65% in size;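 as to activity change, negative = inhibition: plate controls were DMSO wells for no effect and tomatine positive control wells for full effect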; settings: SKOV3ip1-GFP adhesion/invasion on 3D omental model, fluorescence; series mostly up to 45.8 µM; activity change, negative = inhibition: at the top concentration
How it was run: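 A 3D layer of primary human omental fibroblasts, mesothelial cells, fibronectin and collagen I, grown 48 hr, received SKOV3ip1-GFP cells in serum-free medium plus compounds at 0.36-46 umol/L. After 2 hr RT and 16 hr 37 C, fixed adherent GFP cells were counted; normalized to DMSO and tomatine.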

**Q.** Which “outcome” value does the source give for CCOC(=O)c1ccc2ncc(C(=O)OCC)c(Nc3ccc(C)c(Br)c3)c2c1 here?
**A.** inactive

**Q.** For CCC(C(=O)NCc1ccccc1)n1ncn2c(cc3occc32)c1=O (configuration not stated), which “outcome” value is on record?
**A.** inactive

**Q.** Which “outcome” value does the source give for O=c1c2oc3ccccc3c2n(Cc2cccc(C(F)(F)F)c2)c(=O)n1Cc1ccc2c(c1)OCO2 here?
**A.** inactive

**Q.** Which “outcome” value does the source give for CC(C)Sc1ncc(Cl)c(C(=O)Nc2ccc(S(=O)(=O)N3CCCCC3C)cc2)n1 (configuration not stated) here?
**A.** inactive

**Q.** For NS(=O)(=O)c1cc2c(cc1Cl)NC=NS2(=O)=O, which “activity change, negative = inhibition” value is on record?
**A.** inactive: -14.5%

**Q.** Which “activity change, negative = inhibition” value does the source give for COc1ccc(OC)c(CNC(=O)c2cccc(NC(=O)N3CCSc4ncccc43)c2)c1 here?
**A.** inactive: -12.3%

**Q.** For COc1ccccc1NC(=O)C1=C(C)Nc2ncnn2C1c1ccccn1 (configuration not stated), which “activity change, negative = inhibition” value is on record?
**A.** inactive: -0.835%

**Q.** With CCn1cc(C(=O)NC(C)c2ccccc2)c(=O)c2cc(S(=O)(=O)N3CCc4ccccc4C3)ccc21 (configuration not stated) as the compound, how does the “outcome” value read?
**A.** inactive

**Q.** For Cc1ccc(-n2nc(C)c3nc(CCC(=O)Nc4ccc(F)cc4)c(=O)n(C)c32)cc1, which “activity change, negative = inhibition” value is on record?
**A.** inactive: -13.7%

**Q.** For CCOc1ccccc1N(C)C(=O)NCc1noc2ccccc12, which “activity change, negative = inhibition” value is on record?
**A.** inactive: 2.2%

**Q.** Which “outcome” value does the source give for COc1ccc(C(=O)c2cn(CC(=O)Nc3ccc4c(c3)OCO4)c3ccc(OC)cc3c2=O)cc1 here?
**A.** inactive

**Q.** For O=C(NCCc1ccc(Cl)cc1)c1cccn1-c1nnc(N2CCCC2)s1, which “activity change, negative = inhibition” value is on record?
**A.** inactive: 7.23%

**Q.** For Cc1ccc(NC(=O)Cn2cc(S(=O)(=O)N3CCCC3)c(S(=O)(=O)N3CCCC3)c2)c(C)c1, which “outcome” value is on record?
**A.** inactive

**Q.** With CCc1ccccc1NC(=O)c1cc(S(=O)(=O)NC2CCCC2)ccc1F as the compound, how does the “activity change, negative = inhibition” value read?
**A.** inactive: 2.69%

**Q.** For COc1ccc(C(=O)N2CCC(C(=O)Nc3ccccc3Cl)CC2)cc1, which “activity change, negative = inhibition” value is on record?
**A.** inactive: 9.64%

**Q.** For CCCn1cc(S(=O)(=O)c2ccccc2)c(=O)c2cc(F)c(N3CCCC3)cc21, which “activity change, negative = inhibition” value is on record?
**A.** inactive: -2.54%

**Q.** For Cc1ccc(C(=O)N/C(=C\c2cn(S(=O)(=O)N(C)C)c3ccccc23)C(=O)NCCCn2ccnc2)cc1, which “outcome” value is on record?
**A.** inactive

**Q.** Which “outcome” value does the source give for COc1ccc(NC(=O)c2ccco2)cc1NC(=O)COc1ccccc1Cl here?
**A.** inactive

**Q.** For Cc1cccc(NC(=O)CSc2nc3c([nH]c4ccccc43)c(=O)n2-c2ccc(F)cc2)c1C, which “outcome” value is on record?
**A.** inactive

**Q.** Which “activity change, negative = inhibition” value does the source give for COc1ccc(-n2nc(C(=O)N3CCN(c4cccc(C)c4)C(C)C3)c3c4ccccc4n(C)c3c2=O)cc1 (configuration not stated) here?
**A.** inactive: -3.5%

**Q.** Which “activity change, negative = inhibition” value does the source give for CCCn1ccc2c(OCC(=O)Nc3ccc(F)cc3F)cccc2c1=O here?
**A.** inactive: 5.98%

**Q.** Which “outcome” value does the source give for Cc1ccc(C2Nc3ccccc3-n3c(-c4ccccc4)c4c(=O)n(C)c(=O)n(C)c4c32)cc1 (configuration not stated) here?
**A.** inactive

**Q.** Which “activity change, negative = inhibition” value does the source give for N#Cc1ccc(COC[C@H]2O[C@@H](n3c(NCc4ccc(Cl)c(Cl)c4)nc4c(N)ncnc43)[C@@H](O)[C@@H]2O)cc1 here?
**A.** inactive: -19.8%

**Q.** With COc1ccc(NC(=O)c2nn(C)c3c2CSc2ccc(C)cc2-3)cc1OC as the compound, how does the “activity change, negative = inhibition” value read?
**A.** inactive: -10.1%

**Q.** With COc1ccc(C2(C#N)CCC(C(=O)O)CC2)cc1OC1CCCC1 (configuration not stated) as the compound, how does the “activity change, negative = inhibition” value read?
**A.** inactive: 9.33%

**Q.** Which “activity change, negative = inhibition” value does the source give for COc1ccc(CNC(=O)CN2C(=O)COc3ccc(S(=O)(=O)N4CCCCCC4)cc32)cc1 here?
**A.** inactive: 9.7%

**Q.** With COC(=O)c1sccc1S(=O)(=O)N(CC(=O)Nc1cc(C)cc(C)c1)c1ccc(Cl)cc1 as the compound, how does the “outcome” value read?
**A.** inactive

**Q.** Which “activity change, negative = inhibition” value does the source give for COc1ccc(-n2c(SCC(=O)NCc3ccccc3)nc3ccsc3c2=O)cc1 here?
**A.** inactive: -3.79%

**Q.** Which “activity change, negative = inhibition” value does the source give for CCOC(=O)c1ccc(NC(=O)CC2Nc3cc(C)c(C)cc3NC2=O)cc1 (configuration not stated) here?
**A.** inactive: 12.7%

**Q.** With COCCOC(=O)Cn1nnc2sc(-c3ccccc3)cc2c1=O as the compound, how does the “activity change, negative = inhibition” value read?
**A.** inactive: 5.57%

**Q.** For COCCCNC(=O)c1ccc(Cn2c(=O)c3ccccc3n(Cc3ccc(C)cc3)c2=O)cc1, which “activity change, negative = inhibition” value is on record?
**A.** inactive: -24.3%

**Q.** For COc1ccc(CNC(=O)c2ccc(CNS(=O)(=O)c3ccc(OC)cc3)cc2)cc1, which “outcome” value is on record?
**A.** inactive

**Q.** With Cc1[nH]c(C=C2C(=O)Nc3ccccc32)c(C)c1CCC(=O)O as the compound, how does the “activity change, negative = inhibition” value read?
**A.** inactive: -24.1%

**Q.** Which “activity change, negative = inhibition” value does the source give for COc1cccc(NC(=O)c2ccc3c(=O)n4nc(Nc5ccccc5OC)sc4nc3c2)c1 here?
**A.** inactive: -7.29%

**Q.** For Cc1nn(S(=O)(=O)c2ccc(C(C)C)cc2)c(C)c1S(=O)(=O)N1CCCCC1, which “outcome” value is on record?
**A.** inactive

**Q.** Which “outcome” value does the source give for Cc1nc(SCC(=O)OC(C)(C)C)c2c3c(sc2n1)CCCC3 here?
**A.** inactive

**Q.** With CCOc1ccc(-n2c(=O)c3c4c(sc3n(CC(=O)NCCCOC)c2=O)CCCCC4)cc1 as the compound, how does the “activity change, negative = inhibition” value read?
**A.** inactive: -6.77%

**Q.** Which “activity change, negative = inhibition” value does the source give for CCc1cccc(C)c1NS(=O)(=O)c1ccc2c(c1)NC(=O)C(C)C(=O)N2 (configuration not stated) here?
**A.** inactive: -3.5%

**Q.** For CC(=O)OC[C@@H]1O[C@@H](n2ccc(=O)[nH]c2=O)[C@H](OC(C)=O)[C@H]1OC(C)=O, which “activity change, negative = inhibition” value is on record?
**A.** inactive: 4.32%

**Q.** With CC(=O)N1CCCc2cc(S(=O)(=O)N3CCCC(C(=O)N4CCN(c5ccccc5F)CC4)C3)ccc21 (configuration not stated) as the compound, how does the “activity change, negative = inhibition” value read?
**A.** inactive: 2.06%

**Q.** With Cc1ccc2c(c1)-c1c(cnn1CC(=O)N1CCN(c3cccc(C(F)(F)F)c3)CC1)CO2 as the compound, how does the “outcome” value read?
**A.** inactive

**Q.** Which “activity change, negative = inhibition” value does the source give for CCOC(=O)c1cc2c(=O)n3ccccc3nc2n(Cc2ccco2)c1=NC(=O)c1ccc(OC)cc1 here?
**A.** inactive: 2.45%

**Q.** With CC(C)COc1ccc(C(=O)Nc2scc(-c3ccc(Br)cc3)c2C(=O)OC(C)C)cc1 as the compound, how does the “activity change, negative = inhibition” value read?
**A.** inactive: 16.4%

**Q.** For CSc1ccc(CNC(=O)c2ccc3c(c2)N(C)C(=O)C2CCCCN32)cc1 (configuration not stated), which “activity change, negative = inhibition” value is on record?
**A.** inactive: -5.94%

**Q.** Which “activity change, negative = inhibition” value does the source give for CCCCNC(=O)c1cnn2c(C)c(Cc3c(C)cc(C)cc3C)c(C)nc12 here?
**A.** inactive: -2.23%

**Q.** With COc1cc(NC(=O)Cn2c(=O)n(-c3ccccc3)c(=O)c3c4c(sc32)CCCC4)cc(OC)c1 as the compound, how does the “outcome” value read?
**A.** inactive

**Q.** With Cc1ccccc1OCc1ccc(-c2nc(C#N)c(N3CCCCC3)o2)o1 as the compound, how does the “activity change, negative = inhibition” value read?
**A.** inactive: -22.6%

Reference: PubChem BioAssay AID1963576 (National Center for Advancing Translational Sciences (NCATS), 2024)
